Source: PubChem BioAssay AID624296 (National Center for Advancing Translational Sciences (NCATS), 2012)
The whole screen tested about 350,000 compounds, of which about 9,900 (2.8%) were called active. The shares of active, inactive and inconclusive entries below differ from those in the screen. The call rests on the fitted dose curve; in most records, active means well fitted activation curve with a large enough effect; inconclusive means small, poorly fitted or top-dose-only effect; inactive means no such curve, though single readings can be large or run the other way. Potencies of inconclusive entries are left out as doubtful fits.

Assay: A quantitative high throughput screen for small molecules that induce DNA re-replication in MCF 10a normal breast cells. Further: nearly all actives have a fitted effect of over 50% in size.
Settings: MCF 10A DNA re-replication, Hoechst nuclear intensity, 48 h; series mostly up to 46.1 µM
Potency means the concentration at half of the fitted maximal effect; tags describe the fitted curve by direction and shape.

Compound	Potency
CCn1c(CC(=O)Nc2ccc(F)cc2)nnc1SCC(=O)N1CCOCC1	inactive
N=c1c2c(n(Cc3ccc(Br)cc3)c3c1CCC3)CCCC2	inconclusive [activator, partial curve]
COc1ccc(-c2nc3ccc(N4CCN(C)CC4)cc3c(=O)[nH]2)cc1	inconclusive [activator, single point]
Cc1ccc(/C=C2\SC(=S)N(CCCC(=O)Nc3nccs3)C2=O)cc1	inactive
CCCCCOc1ccc(OC(=O)c2ccncc2)cc1	inconclusive [activator, single point]
Cc1ccc(NC(=O)CN(C)C(=O)COc2ccc(C(=O)c3ccc(F)cc3)cc2)cc1	inconclusive [activator, single point]
CN1CCC(N(C)S(=O)(=O)c2ccc(NC(=O)COc3ccc(F)cc3)cc2)CC1	inconclusive [activator, partial curve, poor fit]
CCCn1c(N)c(C(=O)CSc2nnc(-c3cccnc3)n2-c2ccc(C)cc2C)c(=O)[nH]c1=O	inconclusive [activator, single point]
Cc1cnc([N+](=O)[O-])n1CCOC(=O)NC(=O)c1ccccc1	inactive
COc1ccc(C(=O)C2CCCN(Cc3c(O)cccc3OC)C2)cc1OC (stereo not given)	inactive
Cc1ccc(NC(=O)c2ccc(CN3CCc4ccccc4C3)cc2)cc1	inconclusive [activator, partial curve, poor fit]
CCS(=O)(=O)N1CCC2(CC1)OCCN2S(=O)(=O)c1ccc(C)cc1	inactive
N/C(=N\NS(=O)(=O)c1ccccc1C(F)(F)F)c1ccccn1	inactive
CC/C(C)=N/NS(=O)(=O)c1ccc(C)c([N+](=O)[O-])c1	inconclusive [activator, partial curve]
Cc1ccc(-n2ncc(C(=O)Nc3ccc(Cl)cc3)c2C2CCNCC2)cc1C	inactive
CC1(C)Cc2cccc(OCC(=O)Nc3ccccc3N3CCOCC3)c2O1	inconclusive [activator, single point]
N=C1C(=O)OCC1c1ccccc1NC(=O)Nc1ccccc1 (stereo not given)	inactive
Nc1[nH]c2cc([N+](=O)[O-])ccc2c1-c1ccccn1	inconclusive [activator, full curve, poor fit]
Cn1c(=O)c2c(nc(NCCO)n2C)n(C)c1=O	inactive
CCSc1ncc(Cl)c(C(=O)Nc2ccccc2F)n1	inconclusive [activator, single point]
S=C1NC[C@H](Cc2ccccc2)N1CC1CCN(CCCCc2ccccc2)CC1	inconclusive [activator, partial curve, poor fit]
C=CCNC(=O)C1CC1(c1cccc(C)c1)c1cccc(C)c1 (stereo not given)	inactive
COc1ccc(/C=N/NC(=O)c2ccc(CN3C(=O)c4cccc5cccc3c45)cc2)cc1O	active: 16.4 µM
Cc1c(NC(=O)CN2C(=O)NC(C)(c3ccc(OC(F)F)cc3)C2=O)c(=O)n(-c2ccccc2)n1C (stereo not given)	inactive
CCn1cc(CN2CCCC(C(=O)Nc3cccc(-c4cc5ccccc5[nH]4)c3)C2)c(C)n1 (stereo not given)	inconclusive [activator, single point]

Compound	Potency
CCC1(C)Cc2nc3[nH]c(=S)n(-c4ccccc4)c(=O)c3cc2CO1 (stereo not given)	inactive
CSCCCNC(=S)Nc1ccc(N2CCOCC2)cc1N1CCOCC1	inconclusive [activator, single point]
O=C(NCCCc1ccccc1)c1cccc(Br)c1	inactive
Cc1ccc(C)c(NC(=O)CCN2CCC(C)CC2)c1	inactive
Cc1cccn2c(=O)c3cc(C(=O)N4c5ccccc5CC4C)n(C)c3nc12 (stereo not given)	inactive
COc1ccc(C2CC(O)(c3ccccc3)Oc3c(C)ccc(C)c32)cc1 (stereo not given)	inconclusive [activator, single point]
COc1ccc(CCNC(=O)C2CCCN2C(=O)Nc2cccc(C(C)=O)c2)cc1OC (stereo not given)	inconclusive [activator, single point]
CCCn1c(N)c(C(=O)CSc2nnc(C3CC3)n2C2CC2)c(=O)[nH]c1=O	inactive
Cc1ccc(C)c(-c2cc(C(=O)Nc3nccs3)c3ccccc3n2)c1	inconclusive [activator, single point]
Nc1nc(NCC2CCCO2)nc(Nc2ccc(F)cc2)c1[N+](=O)[O-] (stereo not given)	inconclusive [activator, partial curve, poor fit]
Cc1c(NS(=O)(=O)c2ccc(NC3CCCC3)c([N+](=O)[O-])c2)c(=O)n(-c2ccccc2)n1C	inconclusive [activator, partial curve, poor fit]
C/C=C(/C)C(=O)O[C@@H]1c2c(ccc3ccc(=O)oc23)O[C@@H]1C(C)(C)OC(=O)/C(C)=C\C	inconclusive [activator, partial curve]
CNC(=O)c1cc2cccc(OC)c2oc1=O	inactive
O=C(CN(Cc1ccccc1)C(=O)CNS(=O)(=O)c1ccc(Cl)cc1)NCC1CCCO1 (stereo not given)	inactive
O=C(NC12CC3CC(CC(C3)C1)C2)N1CCN(c2ccccc2)CC1	inactive
CCCOc1ccc(/C=C2\SC(N)=NC2=O)cc1OC	inconclusive [activator, single point]
O=C(CCC(=O)Nc1cccc([N+](=O)[O-])c1)N/N=C/c1cccs1	inactive
O=C(Nc1ccccc1)N(CCc1nc2ccccc2[nH]1)C1CCCC1	inactive
Cn1ncc(Cl)c1C(=O)NCc1ccc(Cl)cc1	inactive
COC(=O)/C(C#N)=C/c1c(-c2ccccc2)nc2n1CCS2	inactive
CC(C)c1ccc(-c2cc(C(=O)NN3CCN(C)CC3)c3ccccc3n2)cc1	inconclusive [activator, partial curve, poor fit]
O=c1oc2ccccc2c2c1C(c1ccc(Cl)cc1)Nc1ccc3ccccc3c1-2 (stereo not given)	inconclusive [activator, partial curve]
CC1CC(C)CN(Cc2nc(N)nc(Nc3ccc4ccccc4c3)n2)C1 (stereo not given)	active: 5.8 µM
CC1(C)CC2CC(C)(CN2c2ncnc3ccc(Br)cc23)C1 (stereo not given)	inconclusive [activator, single point]
O=C(CCN1C(=O)/C(=C\c2ccccc2Cl)SC1=S)N1CCN(c2ccccc2)CC1	active: 6.51 µM

Compound	Potency
COC(=O)c1c(NC(=O)CN2CCN(c3ncccn3)CC2)sc(C(N)=O)c1C	inactive
Cc1cc(C(=O)Nc2sc(C)c(-c3ccc(F)cc3)c2C(N)=O)no1	inconclusive [activator, single point]
CCOc1ccc2[nH]c(=O)c(CN(CC3COCCO3)C(=O)c3ccc(C)cc3)cc2c1 (stereo not given)	inconclusive [activator, single point]
CC(C)(C)C(O)CN1CCCC1 (stereo not given)	inactive
COc1ccc(CNC(=O)CSc2ncnc3nc[nH]c23)cc1	inconclusive [activator, partial curve, poor fit]
COc1ccc2nc(NC(=O)C3CCN(S(=O)(=O)c4cnc[nH]4)CC3)sc2c1	inactive
CC(C)(C)NS(=O)(=O)c1ccc2c(c1)oc(=O)c1cc(S(=O)(=O)NC(C)(C)C)ccc12	inconclusive [activator, partial curve, poor fit]
Cc1ccc2c(c1)[C@H]1[C@H](CO2)[C@H](c2ccccc2)[C@]2(C)C(=O)NCC(=O)N12	inactive
CC(C)(C)c1csc(NC(=O)c2ccc(Cl)s2)n1	inconclusive [activator, single point]
Cc1ccccc1N/N=C/c1ccc(C#N)cc1	inconclusive [activator, partial curve, poor fit]
Cc1cccnc1NC1(C(F)(F)F)N=C(c2ccccc2)NC1=O (stereo not given)	inactive
COc1ccc(/C=C/C(=O)OCC(=O)NC2CCCC2)c(OC)c1	inactive
Nc1nc2nc(-c3cccs3)cc(C(F)(F)F)n2n1	active: 20.6 µM
C[C@@H]1CC=C[C@@H]2[C@H]1C(=O)N(Cc1ccccc1)[C@H]2c1ccccc1Br	inconclusive [activator, full curve, poor fit]
Cc1ccc(NC(=O)C2CCN(S(=O)(=O)c3ccc4c(c3)CCCC(=O)N4)CC2)c(Br)c1	inconclusive [activator, single point]
O=C(c1ccco1)N1CCN(C(=O)c2cccs2)CC1	active: 1.84 µM
CCc1cccc(C)c1NC(=O)CSc1nnc(-c2cc3cc(Br)ccc3o2)n1CC	inconclusive [activator, single point]
Cc1ccc(CNC(=O)C2CCN(S(=O)(=O)c3ccc4c(c3)CC(C)N4C(=O)C3CC3)CC2)cc1 (stereo not given)	inactive
O=C1CS/C(=N/N=C/c2c[nH]c3ccccc23)N1	active: 18.4 µM
CC(=O)c1cccc(NC(=O)Cn2cnc(S(=O)(=O)N3CCOCC3)c2)c1	inactive
COc1ccc2c(c1)C1=NN(/C(C)=C/C(C)=O)C(c3ccc(F)cc3)C1CC2 (stereo not given)	inconclusive [activator, single point]
Cc1ccccc1C(=O)NNC(=O)c1cccc(Br)c1	inactive
N#Cc1nc(-c2ccco2)oc1N1CCCC1	inactive
CCOc1ccc(C(=O)SC2=NCCS2)cc1	inconclusive [activator, partial curve, poor fit]
CCCCOc1ccc(CSC(=N)N)cc1Cl	inconclusive [activator, single point]
